# Measurements as given in the supplement of paper PMC8728848.
# The other results are listed elsewhere or left out.
# B1: SP15308A-bot-339-19-339 (Bacteroides ovatus) (protein)
# chain: ACNNEWEDEQYEQYISFKSPIPAGGEGVTDIYVRYKEDGKVTYRLPIVVSGSTTNTLDREVHIAVDKDTLETLNIERFSIHRPGLWYTALEEDKYDFPKTVHISAGSSVEQLNIDFNLQGIDMLEKWVLPLTIVDDPSYNYKSHPRKNYAKALLRVIPFNNYSGSYTSSAMKVYTYINGKPDTNARTANKRTGYVINDNTVFFYAGLISEDLDKEVREKYKINVHFNEDGTLHMEQGDPTNKMKFELIGTPTYSKTSVMDATRPYLERRYVQIMFEYDFEDFSYGGNGVDVIPIKYKVEGSMTLQRNINTQIPDEDQQIEW
# Key:
# Test in all cases: glycan array binding signal (z-score within array); higher = stronger binding
# Conditions in all cases: glycan notation: IUPAC condensed, linker removed
# [1] = molecular target: Gal(b1-4)GlcNAc(b1-3)Gal(b1-4)GlcNAc(b1-6)[Gal(b1-3)]GalNAc
# Outline: (§1)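 Arrays were curated from the Consortium for Functional Glycomics database, 3228 in total, and kept only where the protein sequence was available. Binding is expressed as a within-array Z-score. This score was averaged across arrays of the same protein sequence at different concentrations or buffers and across linkers, and negative values can be read as non-binding.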
# [2] = molecular target: Gal(b1-4)GlcNAc(b1-3)Gal(b1-4)[Fuc(a1-3)]GlcNAc(b1-3)Gal(b1-4)[Fuc(a1-3)]GlcNAc
# Outline: as §1
# [3] = molecular target: Gal(b1-4)GlcNAc(b1-3)GalNAc
# Outline: as §1
# [4] = molecular target: Gal(b1-4)GlcNAc(b1-3)[Fuc(a1-3)GlcNAc(b1-6)]Gal(b1-4)Glc
# Outline: as §1
# [5] = molecular target: Gal(b1-4)GlcNAc(b1-3)[Gal(b1-4)GlcNAc(b1-6)]Gal(b1-4)GlcNAc
# Outline: as §1
# [6] = molecular target: Gal(b1-4)GlcNAc(b1-3)[GlcNAc(b1-6)]Gal(b1-4)GlcNAc
# Outline: as §1
# [7] = molecular target: Gal(b1-4)GlcNAc(b1-6)Gal(b1-4)GlcNAc
# Outline: as §1
# [8] = molecular target: Gal(b1-4)GlcNAc(b1-6)GalNAc
# Outline: as §1
# [9] = molecular target: Gal(b1-4)GlcNAc(b1-6)[Gal(b1-3)]GalNAc
# Outline: as §1
# [10] = molecular target: Gal(b1-4)GlcNAc(b1-6)[Gal(b1-4)GlcNAc(b1-3)]GalNAc
# Outline: as §1
# Gal(b1-4)GlcNAc6P = molecular target: Gal(b1-4)GlcNAc6P
# Outline: as §1
# Gal(b1-6)Gal = molecular target: Gal(b1-6)Gal
# Outline: as §1
# Gal3S(b1-3)GalNAc = molecular target: Gal3S(b1-3)GalNAc
# Outline: as §1
# Gal3S(b1-3)GlcNAc = molecular target: Gal3S(b1-3)GlcNAc
# Outline: as §1
# [11] = molecular target: Gal3S(b1-3)[Fuc(a1-4)]GlcNAc
# Outline: as §1
# Gal3S(b1-4)Glc = molecular target: Gal3S(b1-4)Glc
# Outline: as §1
# Gal3S(b1-4)Glc6S = molecular target: Gal3S(b1-4)Glc6S
# Outline: as §1
# Gal3S(b1-4)GlcNAc = molecular target: Gal3S(b1-4)GlcNAc
# Outline: as §1
# [12] = molecular target: Gal3S(b1-4)[Fuc(a1-3)]Glc6S
# Outline: as §1
# [13] = molecular target: Gal3S(b1-4)[Fuc(a1-3)]GlcNAc
# Outline: as §1
# [14] = molecular target: Gal3S(b1-4)[Fuc(a1-3)]GlcNAc6S
# Outline: as §1
# Gal3S4S(b1-4)GlcNAc = molecular target: Gal3S4S(b1-4)GlcNAc
# Outline: as §1
# Gal3S6S(b1-4)GlcNAc = molecular target: Gal3S6S(b1-4)GlcNAc
# Outline: as §1
# Gal3S6S(b1-4)GlcNAc6S = molecular target: Gal3S6S(b1-4)GlcNAc6S
# Outline: as §1
# Gal4S(b1-4)GlcNAc = molecular target: Gal4S(b1-4)GlcNAc
# Outline: as §1
# Gal4S6S(b1-4)GlcNAc = molecular target: Gal4S6S(b1-4)GlcNAc
# Outline: as §1
# Gal6P(b1-4)GlcNAc = molecular target: Gal6P(b1-4)GlcNAc
# Outline: as §1
# Gal6S(b1-3)GlcNAc = molecular target: Gal6S(b1-3)GlcNAc
# Outline: as §1
# Gal6S(b1-3)GlcNAc6S = molecular target: Gal6S(b1-3)GlcNAc6S
# Outline: as §1
# Gal6S(b1-4)Glc = molecular target: Gal6S(b1-4)Glc
# Outline: as §1
# Gal6S(b1-4)Glc6S = molecular target: Gal6S(b1-4)Glc6S
# Outline: as §1
# Gal6S(b1-4)GlcNAc = molecular target: Gal6S(b1-4)GlcNAc
# Outline: as §1
# Gal6S(b1-4)GlcNAc6S = molecular target: Gal6S(b1-4)GlcNAc6S
# Outline: as §1
# GalNAc(a1-3)Gal = molecular target: GalNAc(a1-3)Gal
# Outline: as §1
# GalNAc(a1-3)GalNAc = molecular target: GalNAc(a1-3)GalNAc
# Outline: as §1
# [15] = molecular target: GalNAc(a1-3)GalNAc(b1-3)Gal(a1-4)Gal(b1-4)Glc
# Outline: as §1
# [16] = molecular target: GalNAc(a1-3)GalNAc(b1-3)Gal(a1-4)Gal(b1-4)GlcNAc
# Outline: as §1
# GalNAc(b1-3)Gal = molecular target: GalNAc(b1-3)Gal
# Outline: as §1
# [17] = molecular target: GalNAc(b1-3)Gal(a1-4)Gal(b1-4)GlcNAc
# Outline: as §1
# [18] = molecular target: GalNAc(b1-3)Gal(a1-4)Gal(b1-4)GlcNAc(b1-3)Gal(b1-4)Glc
# Outline: as §1
# [19] = molecular target: GalNAc(b1-3)Gal(a1-6)Gal(b1-4)Glc
# Outline: as §1
# GalNAc(b1-3)GalNAc = molecular target: GalNAc(b1-3)GalNAc
# Outline: as §1
# GalNAc(b1-3)GlcNAc = molecular target: GalNAc(b1-3)GlcNAc
# Outline: as §1
# GalNAc(b1-4)Gal(b1-4)Glc = molecular target: GalNAc(b1-4)Gal(b1-4)Glc
# Outline: as §1
# GalNAc(b1-4)GlcNAc = molecular target: GalNAc(b1-4)GlcNAc
# Outline: as §1
binder,measurement,setting,value
B1,glycan array binding signal (z-score),[1],-0.29
same,glycan array binding signal (z-score),[2],-0.128
same,glycan array binding signal (z-score),[3],0.135
same,glycan array binding signal (z-score),[4],-0.732
same,glycan array binding signal (z-score),[5],0.369
same,glycan array binding signal (z-score),[6],-0.377
same,glycan array binding signal (z-score),[7],-0.427
same,glycan array binding signal (z-score),[8],0.329
same,glycan array binding signal (z-score),[9],0.088
same,glycan array binding signal (z-score),[10],-0.234
same,glycan array binding signal (z-score),Gal(b1-4)GlcNAc6P,0.203
same,glycan array binding signal (z-score),Gal(b1-6)Gal,0.157
same,glycan array binding signal (z-score),Gal3S(b1-3)GalNAc,0.97
same,glycan array binding signal (z-score),Gal3S(b1-3)GlcNAc,-0.098
same,glycan array binding signal (z-score),[11],0.015
same,glycan array binding signal (z-score),Gal3S(b1-4)Glc,0.257
same,glycan array binding signal (z-score),Gal3S(b1-4)Glc6S,-0.049
same,glycan array binding signal (z-score),Gal3S(b1-4)GlcNAc,-0.26
same,glycan array binding signal (z-score),[12],0.627
same,glycan array binding signal (z-score),[13],-0.285
same,glycan array binding signal (z-score),[14],0.244
same,glycan array binding signal (z-score),Gal3S4S(b1-4)GlcNAc,0.201
same,glycan array binding signal (z-score),Gal3S6S(b1-4)GlcNAc,-0.342
same,glycan array binding signal (z-score),Gal3S6S(b1-4)GlcNAc6S,0.111
same,glycan array binding signal (z-score),Gal4S(b1-4)GlcNAc,0.159
same,glycan array binding signal (z-score),Gal4S6S(b1-4)GlcNAc,-0.453
same,glycan array binding signal (z-score),Gal6P(b1-4)GlcNAc,-0.354
same,glycan array binding signal (z-score),Gal6S(b1-3)GlcNAc,-0.111
same,glycan array binding signal (z-score),Gal6S(b1-3)GlcNAc6S,-0.062
same,glycan array binding signal (z-score),Gal6S(b1-4)Glc,0.17
same,glycan array binding signal (z-score),Gal6S(b1-4)Glc6S,0.024
same,glycan array binding signal (z-score),Gal6S(b1-4)GlcNAc,-0.335
same,glycan array binding signal (z-score),Gal6S(b1-4)GlcNAc6S,0.157
same,glycan array binding signal (z-score),GalNAc(a1-3)Gal,0.558
same,glycan array binding signal (z-score),GalNAc(a1-3)GalNAc,1.35
same,glycan array binding signal (z-score),[15],-0.02
same,glycan array binding signal (z-score),[16],-0.21
same,glycan array binding signal (z-score),GalNAc(b1-3)Gal,-0.419
same,glycan array binding signal (z-score),[17],0.107
same,glycan array binding signal (z-score),[18],-0.168
same,glycan array binding signal (z-score),[19],-0.042
same,glycan array binding signal (z-score),GalNAc(b1-3)GalNAc,0.046
same,glycan array binding signal (z-score),GalNAc(b1-3)GlcNAc,0.254
same,glycan array binding signal (z-score),GalNAc(b1-4)Gal(b1-4)Glc,-0.085
same,glycan array binding signal (z-score),GalNAc(b1-4)GlcNAc,1.18
